The other results are listed elsewhere or left out. Sequences were assembled here from the parent chain. Values near 0.05 are background.
B1: TEV protease; numbered along this chain (parent)
chain: MGESLFKGPRDYNPISSSICHLTNESDGHTTSLYGIGFGPFIITNKHLFRRNNGTLVVQSLHGVFKVKDTTTLQQHLVDGRDMIIIRMPKDFPPFPQKLKFREPQREERICLVTTNFQTKSMSSMVSDTSCTFPSGDGIFWKHWIQTKDGQCGSPLVSTRDGFIVGIHSASNFTNTNNYFTSVPKNFMELLTNQEAQQWVSGWRLNADSVLWGGHKVFMVKPEEPFQPVKEATQL

Variants of: B1
Assay: raw area under fraction-flipped curve 0-4 h after induction (AUC4h, not background-subtracted), DNA-recorder readout of cleavage of the substrate (dimensionless); higher = more cleavage of the substrate by the protease variant
Conditions: temperature: 34 °C; time window: 0-4 h after rhamnose induction
Procedure: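 In vivo DNA recorder in E. coli TOP10(DE3) ΔrhaA at 34 °C. Each TEVp single-site mutant (parent TEVp 0) is paired with a single-site variant of the 7-mer TEVs (canonical ENLYFQ|S). The substrate sits between flexible linkers in a Bxb1-sfGFP-TEVs-SsrA fusion, so cleavage stabilises Bxb1 and speeds flipping of a recombination array, read by NGS. The value is the raw area under the fraction-flipped curve over 0-4 h after rhamnose induction (AUC4h), with ≥20 reads per time point. It is not background-subtracted; inactive controls average about 0.047.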
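Note: Bxb1 expression induced with 0.2% (w/v) L-rhamnose at OD600 near 0.5, cultures sampled hourly, flipped fraction per protease–substrate barcode pair counted by paired-end Illumina sequencing.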

Variant | area with substrate ENLYFQA | area with substrate ENLYFQC | area with substrate ENLYFQD | area with substrate ENLYFQF | area with substrate ENLYFQG | area with substrate ENLYFQH | area with substrate ENLYFQI | area with substrate ENLYFQK | area with substrate ENLYFQL | area with substrate ENLYFQQ | area with substrate ENLYFQR | area with substrate ENLYFQS | area with substrate ENLYFQT | area with substrate ENLYFQV | area with substrate ENLYFQW | area with substrate ENLYFQE | area with substrate ENLYFQM | area with substrate ENLYFQN | area with substrate ENLYFQY | area with substrate ENLYFQP
K142F | 0.0918 | 0.105 | 0.0875 | 0.0651 | 0.0679 | 0.0822 | 0.0677 | 0.073 | 0.0605 | 0.0568 | 0.0639 | 0.091 | 0.0672 | 0.0625 | 0.066 | – | – | – | – | –
K142T | 0.0921 | 0.0921 | – | 0.0942 | 0.0537 | – | 0.08 | 0.0464 | 0.0838 | – | – | 0.0909 | 0.0675 | – | 0.0611 | 0.0575 | 0.0821 | 0.0727 | – | –
K142E | 0.0798 | 0.0859 | 0.0652 | – | 0.0823 | 0.079 | 0.0577 | 0.0655 | 0.0541 | – | 0.0532 | 0.0868 | – | 0.0633 | 0.063 | – | 0.0656 | – | 0.0636 | –
G150R | 0.0643 | 0.048 | – | 0.056 | 0.0654 | 0.059 | 0.0618 | 0.0554 | 0.0582 | 0.0568 | 0.0578 | 0.0583 | 0.0603 | 0.049 | 0.0613 | – | 0.0579 | 0.0685 | 0.0542 | 0.0512
G150K | 0.0474 | 0.0561 | 0.0529 | – | – | – | 0.0625 | 0.0578 | 0.0519 | 0.0779 | 0.0621 | 0.0606 | – | – | 0.0544 | – | 0.0659 | 0.0572 | – | –
F187Q | 0.0602 | 0.0866 | – | 0.0488 | 0.0742 | 0.0439 | 0.0462 | 0.0548 | 0.0542 | – | 0.0361 | 0.0646 | 0.0524 | 0.0431 | 0.0459 | – | 0.0602 | 0.0427 | 0.0639 | 0.0587
T132V | 0.0841 | 0.106 | 0.062 | 0.0701 | 0.089 | – | 0.0629 | 0.0678 | 0.0602 | 0.0711 | 0.0717 | 0.0988 | 0.0616 | 0.0516 | 0.0628 | – | 0.0975 | 0.0673 | 0.0823 | –
D137N | 0.101 | 0.1 | – | 0.0775 | 0.0979 | 0.0769 | 0.0566 | 0.0616 | 0.062 | – | 0.0581 | 0.0958 | 0.0674 | 0.0513 | 0.0649 | – | 0.076 | 0.0765 | 0.0854 | 0.0642
D137L | 0.0924 | 0.11 | – | – | 0.0898 | 0.0799 | – | 0.0716 | – | – | 0.0634 | 0.0952 | 0.0691 | – | – | – | 0.0622 | 0.0692 | – | 0.0286
D137R | 0.0827 | 0.0928 | – | – | 0.0779 | 0.0696 | 0.0558 | 0.0581 | 0.0616 | 0.0615 | 0.0701 | 0.0769 | – | 0.0511 | 0.0631 | – | 0.0688 | 0.0785 | – | 0.0487
F133N | 0.0951 | – | 0.0638 | 0.123 | 0.0758 | 0.0582 | 0.0621 | 0.0757 | – | 0.0742 | 0.0747 | 0.104 | 0.0664 | – | – | – | 0.0824 | 0.07 | – | –
F133E | 0.134 | 0.106 | 0.0917 | – | 0.0884 | – | 0.0582 | 0.0623 | 0.0874 | – | 0.0532 | 0.108 | 0.066 | – | 0.0652 | – | 0.124 | 0.0757 | 0.0902 | –

From the supplement of paper PMC12217912
